# Test results reported in PubChem BioAssay AID488969 (Vanderbilt High Throughput Screening Facility, 2010).
# The full ranking holds about 110,000 compounds; the median of “z-score” is about -0.1, and the highest 2% start at about 2. The list shows a part of the results. Activity calls are given as the source filed them.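 How the source made its calls: active means z-score in the third read window above 3 or below -3; inactive means the rest.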
# Target: Metabotropic glutamate receptor 8 (Rattus norvegicus) (UniProt P70579)
# Sequence of UniProt P70579 (P70579 whole entry, looked up): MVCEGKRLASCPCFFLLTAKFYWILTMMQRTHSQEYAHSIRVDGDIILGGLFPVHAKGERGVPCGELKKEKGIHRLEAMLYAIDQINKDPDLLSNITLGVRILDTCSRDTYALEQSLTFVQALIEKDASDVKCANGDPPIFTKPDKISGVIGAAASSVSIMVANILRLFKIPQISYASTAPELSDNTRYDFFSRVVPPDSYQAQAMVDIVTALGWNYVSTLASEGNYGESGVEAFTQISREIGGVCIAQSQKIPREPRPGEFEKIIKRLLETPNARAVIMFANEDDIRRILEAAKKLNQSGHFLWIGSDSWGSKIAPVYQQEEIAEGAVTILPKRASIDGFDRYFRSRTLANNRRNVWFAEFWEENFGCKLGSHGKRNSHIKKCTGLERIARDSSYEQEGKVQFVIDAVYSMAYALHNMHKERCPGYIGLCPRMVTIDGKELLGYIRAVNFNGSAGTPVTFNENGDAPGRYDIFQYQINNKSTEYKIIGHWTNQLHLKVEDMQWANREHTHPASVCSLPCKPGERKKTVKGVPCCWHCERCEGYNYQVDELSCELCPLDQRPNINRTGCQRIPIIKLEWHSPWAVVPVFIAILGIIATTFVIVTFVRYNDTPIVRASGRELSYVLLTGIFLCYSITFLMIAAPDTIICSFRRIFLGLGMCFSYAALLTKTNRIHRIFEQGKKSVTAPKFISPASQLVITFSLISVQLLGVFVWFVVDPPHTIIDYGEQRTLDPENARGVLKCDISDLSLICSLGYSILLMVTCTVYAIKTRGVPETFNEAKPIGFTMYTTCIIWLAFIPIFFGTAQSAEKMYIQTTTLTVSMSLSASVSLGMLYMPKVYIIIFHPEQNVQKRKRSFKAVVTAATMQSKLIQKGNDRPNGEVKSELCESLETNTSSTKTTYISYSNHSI
# Experiment: rat mGluR8 modulators via GIRK flux, primary screen, cell-based, thallium flux, HTS (AID 488969)
# Conditions: HEK293 rat mGluR8, GIRK (G protein-gated inwardly rectifying potassium channel) thallium flux, FluoZin2; at 10 µM; stronger effect = higher value; submaximal glutamate (EC20) added with thallium
row,SMILES,z-score
1,Cc1c(Cl)cccc1NC(=O)CN1CCN(CCO)CC1,0.396
2,N=c1ncn(Cc2ccccc2)c2nc(SCCOc3ccccc3)[nH]c12,-0.517
3,c1cn2cc(CN3CCOCC3)nc2s1,-0.0735
4,Cc1nn(Cc2cccc(F)c2)c(C)c1NC(=O)c1ccc(COc2ccccc2Cl)cc1,-0.189
5,CCN1C(=O)C2(C(C#N)=C(N)Oc3n[nH]c(-c4ccc(Cl)cc4)c32)c2ccccc21 (stereo not given),0.0293
6,CS(=O)(=O)N(CC(=O)N1CCCC1)c1cc(Cl)c(Cl)cc1Cl,0.418
7,COC(=O)c1ccc(NC(=S)NC2CCCCC2)cc1,0.1
8,CC1(C)CC(CC(=O)Nc2ccccn2)C(=O)O1 (stereo not given),-0.186
9,CCCCC(CCC(=O)Nc1ccccc1C(=O)OCC)C(=O)O (stereo not given),-0.127
10,CCN(CC)CCn1c(-c2ccccc2)nc(=S)c2c1CC(C)(C)OC2,-0.104
11,CCNC(=O)Nn1c(C)nnc1C,0.0579
12,CCN1CCN(C(=O)c2ccc(CN(c3ccccc3)S(=O)(=O)c3ccccc3)cc2)CC1,-1.46
13,OCCN(Cc1ccccc1)CC1CC2C=CC1C2 (stereo not given),0.0197
14,Cc1nc2ccccc2cc1OCc1ccc(Cl)cc1,0.163
15,O=C(N/N=C/c1ccncc1)c1cccc([N+](=O)[O-])c1,0.0455
16,CCOC(=O)c1ccc(NC(=O)COc2ccc(S(=O)(=O)NC(C)(C)C)cc2)cc1,0.249
17,CCCc1cc(C(=O)Nc2ccc(F)cc2F)no1,-0.353
18,CC(=O)Nc1ccccc1C(=O)C(=O)Nc1cccc(F)c1,0.0276
19,COC(=O)c1ccc(NC(=O)CCN2CCN(CCC(=O)Nc3ccc(C(=O)OC)cc3)CC2)cc1,0.0996
20,COc1cc2c(cc1NC(=S)NC(=O)/C=C/c1ccco1)oc1ccccc12,0.0976
21,Clc1ccccc1C1=Nn2c(nnc2-c2ccncc2)SC1,0.344
22,COc1ccc(N(CC(=O)NCC2CCCO2)C(=O)CCC(=O)Nc2nccs2)cc1 (stereo not given),0.126

row,SMILES,z-score
1,CC(=O)c1ccc(N2CCN(C(=O)c3cc4c(-c5ccccc5F)nn(C)c4s3)CC2)cc1,-0.418
2,O=C1NCCCN1Cc1ccc(F)cc1Cl,0.214
3,O=C(c1cc2nc(-c3ccccc3)cc(-c3ccccc3)n2n1)N1CCN(C(=O)c2ccco2)CC1,active: -3.33
4,c1ccc(CNc2nc3ccccc3[nH]2)cc1,0.236
5,CC(NC(=O)c1ccccc1NC(=O)CSc1nnnn1C)c1ccccc1 (stereo not given),2.05
6,O=C1CCCC2=C1C(c1ccncc1)c1c(nc(SCc3ccccc3Cl)[nH]c1=O)N2 (stereo not given),-1.24
7,O=C(NCCc1cccs1)C1CC(c2ccccc2[N+](=O)[O-])=NO1 (stereo not given),-0.176
8,Cc1ccc(S(=O)(=O)/N=c2\sccn2C)cc1,0.164
9,CSc1ccc(OC2CCCCC2NS(=O)(=O)c2ccc(Cl)cc2)cc1 (stereo not given),0.803
10,O=C(CSc1cn(Cc2ccccc2)c2ccccc12)Nc1nccs1,-0.121
11,COc1ccc(OC)c(CNC(=O)CCN2C(=O)COc3ccccc32)c1,0.307
12,CN1CCN(CC(=O)C23CC4CC(CC(C4)C2)C3)CC1,0.435
13,Cc1cccc(NC(=O)c2ccc(NCCc3ccccc3)c([N+](=O)[O-])c2)c1,-0.0245
14,Cc1ccc(CN(c2ccc(C(=O)N3CCCC3)cc2)S(C)(=O)=O)cc1,-0.435
15,CC1CC2(C)Oc3ccccc3C3OCC1(CO)C(C)C32 (stereo not given),-0.294
16,CC1(C2(O)CC(c3ccccc3)ON2)CCCCC1 (stereo not given),-0.453
17,CCC(C(=O)Nc1nnc(-c2ccco2)s1)c1ccccc1 (stereo not given),-0.521
18,COC(=O)C(C)C1Sc2ccccc2NC1=O (stereo not given),-0.34
19,COc1ccc(CCNc2oc(Cc3ccccc3)nc2C#N)cc1OC,-0.851
20,Cc1nc2sc(C(c3cccc(F)c3)N3CCCCC3)c(O)n2n1 (stereo not given),-0.207
21,NC(=O)c1ccccc1N/C=C/C(=O)c1ccc(Cl)cc1,0.448
22,Cc1ccc(C(=O)COC(=O)c2ccncc2)cc1[N+](=O)[O-],-0.0626

row,SMILES,z-score
1,O=C(Cn1nnc(-c2ccccc2)n1)Nc1ccccc1N1CCOCC1,0.927
2,COc1ccc(C)cc1NC(=O)C(Sc1nnc(-c2ccncc2)n1-c1ccc(Cl)cc1)c1ccccc1 (stereo not given),-0.174
3,Cc1cc(C)c(NC(=O)CS(=O)CC(=O)Nc2cccnc2)c(C)c1 (stereo not given),-0.985
4,O=C(Nc1cccc(-c2nc3ncccc3o2)c1)c1ccco1,0.204
5,COCCN(Cc1ccccc1)C(=S)Nc1ccc(OC(F)F)cc1,-0.227
6,CCCCNC(=O)CSc1nc2ccc(NC(=O)CSc3nnc(COc4ccccc4C)n3C)cc2s1,-0.146
7,CN1CCN(c2ccc(S(=O)(=O)N3CCCCC3)cc2NC(=O)Cc2ccc(Cl)cc2)CC1,-0.00259
8,COc1ccc(CNC(=O)CN2C(=O)C3CCCN3c3ncc(Cl)cc32)cc1 (stereo not given),-0.311
9,Cc1cc(NC(=O)COC(=O)C2COc3ccccc3O2)no1 (stereo not given),-0.0514
10,O=C(OC1CCN(c2ncc(C(F)(F)F)cc2Cl)CC1)c1ccc(Cl)cc1,-0.0974
11,COc1ccc(C(=O)N/N=C/c2ccc(OC(=O)c3ccccc3)cc2)cc1,-0.28
12,O=C(COc1ccccc1)NNC(=O)c1cccs1,-0.157
13,CCC(=O)N1CCCc2cc(S(=O)(=O)N3CCN(c4ncccn4)CC3)ccc21,0.519
14,Cc1ccc(S(=O)(=O)NCCCCCC(N)=O)cc1,0.00872
15,CCOc1ccccc1NC(=O)C(OC(=O)c1ccccc1)c1ccccc1 (stereo not given),-0.172
16,COC(=O)C1=C(N)c2ccccc2C1(C#N)c1ccccc1 (stereo not given),-0.443
17,CCn1c2ccccc2n2c(=O)c(=O)n(CC(=O)Nc3ccc(C(C)C)cc3)nc12,-0.181
18,O=c1c(/C=C(\O)c2ccc(F)cc2)nc2ccccc2n1-c1ccccc1,-0.472
19,COc1cc(NC(=O)CN2CCN(S(=O)(=O)c3ccc(C(C)C)cc3)CC2)cc(OC)c1,-0.348
20,O=C(CN(Cc1ccco1)C(=O)CNS(=O)(=O)c1ccccc1)NC1CCCCC1,-0.479
21,CC(=O)C(N=Nc1ccccc1)(Sc1nnc(-c2ccccc2)n1-c1ccccc1)C(C)=O,-0.758
22,CCn1c(=O)c2c3c(sc2n2cnnc12)CCC3,-1.81

row,SMILES,z-score
1,C/C(=N\NC(=O)c1ccc(=O)[nH]n1)c1cccnc1,0.48
2,N=c1n(CCO)c2ccccc2n1Cc1ccc(Cl)cc1,0.111
3,O=C(NC1CCN(Cc2nnnn2CCc2ccccc2)CC1)c1ccccc1F,0.581
4,COc1ccc(C2Oc3ccccc3C3=C2C(c2cccs2)n2ncnc2N3)cc1 (stereo not given),-0.348
5,Cc1cccc(NC(=O)CSc2nc3c(c(=O)[nH]2)CCC3)c1C,-0.0905
6,Cc1ccc2c(COC(=O)CC3Sc4ccccc4NC3=O)cc(=O)oc2c1C (stereo not given),-0.305
7,COc1cc(-c2nnc(SCC(=O)Nc3ccc4c(c3)OCCO4)o2)cc(OC)c1OC,-0.076
8,CC(C)CCOP(=O)(c1ccc(N(C)C)cc1)C(O)c1ccccn1 (stereo not given),active: 5.74
9,Fc1cccc2sc(Nc3nc4c(F)cccc4s3)nc12,2.09
10,COc1ccc(NC(=O)C2CC(=O)N(c3cccc(C)c3C)C2)cc1 (stereo not given),-0.437
11,C/C(=N\O)C1(C)N(O)C(C)(C)C(c2ccc(F)cc2)=[N+]1[O-] (stereo not given),0.0959
12,O=C(CSc1nc2cc(C(F)(F)F)ccc2n1Cc1ccccc1)NC1CCS(=O)(=O)C1 (stereo not given),-0.137
13,O=C(NN1CCCCC1)c1cccc(COc2ccc(Cl)cc2)c1,-0.5
14,Clc1ccc(-c2nc(Cc3ccccc3Cl)no2)cc1,0.619
15,CCN(/C=N/c1sc2c(c1C#N)CC(C)(C)NC2(C)C)CC,0.541
16,O=C(NC1CCN(Cc2ccccc2)CC1)c1cc(-c2ccccn2)nc2ccccc12,0.11
17,Cc1cccc(-n2c(SCC(=O)Nc3nonc3C)nnc2-c2ccoc2C)c1,-0.249
18,O=C(CCN(NC(=O)c1ccccc1)C1=NS(=O)(=O)c2ccccc21)NC1CCCCC1,0.0129
19,CCCNS(=O)(=O)c1ccc(NC(=O)Cc2cccs2)cc1,0.302
20,Cc1ccc(C(=O)CCC(=O)O)cc1,0.219
21,COCCNS(=O)(=O)c1ccc2c(c1)C(=O)c1cc(S(=O)(=O)NCCOC)ccc1-2,0.405
22,CCOC(=O)N1CCN(C(=O)/C=C/c2ccc3c(c2)OCO3)CC1,0.0645

row,SMILES,z-score
1,CCCCn1nnnc1SCC(=O)N1CCOCC1,0.271
2,CS(=O)(=O)Nc1ccc(C(=O)NCc2cccnc2)cc1,0.614
3,COc1ccc(-c2nnc(SC(C)C(=O)Nc3c(C)n(C)n(-c4ccccc4)c3=O)o2)cc1 (stereo not given),0.336
4,Cc1sc(NC(=O)CSc2ncn(-c3ccccc3)n2)nc1-c1ccccc1,-0.427
5,CCCCCCC(=O)N=Nc1c(O)[nH]c2ccc([N+](=O)[O-])cc12,-0.0753
6,COc1ccc(Cl)cc1NC(=O)NCCCl,-0.124
7,COc1cc(CO)ccc1Oc1nnnn1-c1ccc(C(N)=O)cc1,-0.0931
8,Cc1cccc(NC(=O)/C(C#N)=C/c2ccc(Sc3ccccc3)o2)c1C,0.0856
9,CCOC(=O)c1c(C2COc3ccccc3O2)csc1NC(=O)c1ccccc1 (stereo not given),-0.287
10,CC(=O)Nc1ccc(Cc2ccncc2)cc1,0.145
11,CCOc1ccccc1OCC(=O)Nc1ccc(S(=O)(=O)Nc2nc(C)cc(C)n2)cc1,0.12
12,CCc1ccc(N2CC(C(=O)OCC(=O)Nc3cc(C)on3)CC2=O)cc1 (stereo not given),-1.65
13,O=C(COC(=O)c1cccnc1)Nc1ccccc1,0.274
14,c1coc(CNc2nc3ccccc3n2CCN2CCOCC2)c1,-0.389
15,CCOC(=O)c1c(NC(=O)C(C)Sc2cccc[n+]2[O-])sc2c1CCN(Cc1ccccc1)C2 (stereo not given),-0.721
16,COc1ccc(C)cc1S(=O)(=O)N1CCC(C)CC1,-0.432
17,CCC(=O)NCCn1ccc2ccccc21,0.191
18,NCCCCCc1nnc(SCc2ccccc2Cl)o1,1.74
19,O=C(COc1ccc(Cl)cc1)NCc1nnc(SCC(=O)Nc2ccc3c(c2)OCCO3)o1,-0.152
20,CCOC(=O)c1ccc(NC(=O)NC2CC3CCC(C2)N3Cc2nnnn2C(C)(C)C)cc1 (stereo not given),1.36
21,Cc1ccc(/C(N)=N/OC(=O)c2ccc3c(c2)OCO3)cc1,-0.279
22,CC1Cc2ccccc2N1Cc1nc2cc(Cl)ccc2c(=O)[nH]1 (stereo not given),0.357
